# Measured values taken from the supplement of paper PMC8728848.
# The other results are listed elsewhere or left out.
# B1: Als3-41 (Candida albicans) (protein)
# chain: KTITGVFNSFNSLTWSNAATYNYKGPGTPTWNAVLGWSLDGTSASPGDTFTLNMPCVFKFTTSQTSVDLTAHGVKYATCQFQAGEEFMTFSTLTCTVSNTLTPSIKALGTVTLPLAFNVGGTGSSVDLEDSKCFTAGTNTVTFNDGGKKISINVDFERSNVDPKGYLTDSRVIPSLNKVSTLFVAPQCANGYTSGTMGFANTYGDVQIDCSNIHVGITKGLNDWNYPVSSESFSYTKTCSSNGIFITYKNVPAGYRPFVDAYISATDVNSYTLSYANEYTCAGGYWQRAPFTLRWTGYRNSDAGSNGIVIVATTRTVTDSTTAVTTLPFDPNRDKTKTIEILKPIPTTTITTSYVGVTTSYLTKTAPIGETATVIVD
# Legend:
# Experiment in all cases: glycan array binding signal (z-score within array); higher = stronger binding
# Details in all cases: glycan notation: IUPAC condensed, linker removed
# Neu5Ac(a2-3)Gal = molecular target: Neu5Ac(a2-3)Gal
# Summary of the method: (§1)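 Columns mapping to the same glycan were averaged after glycan names were converted to IUPAC-condensed notation. The data come from 3228 arrays in the Consortium for Functional Glycomics database, limited to those with an available protein sequence. Binding is reported as a within-array Z-score averaged across arrays of one protein sequence and across linkers.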
# [1] = molecular target: Neu5Ac(a2-3)Gal(b1-3)GalNAc
# Summary of the method: as §1
# [2] = molecular target: Neu5Ac(a2-3)Gal(b1-3)GalNAc(b1-3)Gal(a1-4)Gal(b1-4)Glc
# Summary of the method: as §1
# [3] = molecular target: Neu5Ac(a2-3)Gal(b1-3)GalNAc(b1-4)[Neu5Ac(a2-3)]Gal(b1-4)Glc
# Summary of the method: as §1
# [4] = molecular target: Neu5Ac(a2-3)Gal(b1-3)GalNAc(b1-4)[Neu5Ac(a2-8)Neu5Ac(a2-3)]Gal(b1-4)Glc
# Summary of the method: as §1
# [5] = molecular target: Neu5Ac(a2-3)Gal(b1-3)GalNAc6S
# Summary of the method: as §1
# [6] = molecular target: Neu5Ac(a2-3)Gal(b1-3)GlcNAc
# Summary of the method: as §1
# [7] = molecular target: Neu5Ac(a2-3)Gal(b1-3)GlcNAc(b1-2)Man
# Summary of the method: as §1
# [8] = molecular target: Neu5Ac(a2-3)Gal(b1-3)GlcNAc(b1-2)Man(a1-3)[GlcNAc(b1-4)][Neu5Ac(a2-3)Gal(b1-3)GlcNAc(b1-2)Man(a1-6)]Man(b1-4)GlcNAc(b1-4)GlcNAc
# Summary of the method: as §1
# [9] = molecular target: Neu5Ac(a2-3)Gal(b1-3)GlcNAc(b1-2)Man(a1-3)[Neu5Ac(a2-3)Gal(b1-3)GlcNAc(b1-2)Man(a1-6)]Man(b1-4)GlcNAc(b1-4)GlcNAc
# Summary of the method: as §1
# [10] = molecular target: Neu5Ac(a2-3)Gal(b1-3)GlcNAc(b1-3)Gal(b1-3)GlcNAc
# Summary of the method: as §1
# [11] = molecular target: Neu5Ac(a2-3)Gal(b1-3)GlcNAc(b1-3)Gal(b1-4)GlcNAc
# Summary of the method: as §1
# [12] = molecular target: Neu5Ac(a2-3)Gal(b1-3)GlcNAc(b1-3)GalNAc
# Summary of the method: as §1
# [13] = molecular target: Neu5Ac(a2-3)Gal(b1-3)GlcNAc(b1-4)Gal(b1-4)Glc
# Summary of the method: as §1
# [14] = molecular target: Neu5Ac(a2-3)Gal(b1-3)GlcNAc(b1-6)GalNAc
# Summary of the method: as §1
# [15] = molecular target: Neu5Ac(a2-3)Gal(b1-3)GlcNAc6S
# Summary of the method: as §1
# [16] = molecular target: Neu5Ac(a2-3)Gal(b1-3)[Fuc(a1-4)]GlcNAc
# Summary of the method: as §1
# [17] = molecular target: Neu5Ac(a2-3)Gal(b1-3)[Fuc(a1-4)]GlcNAc(b1-3)Gal(b1-3)[Fuc(a1-4)]GlcNAc
# Summary of the method: as §1
# [18] = molecular target: Neu5Ac(a2-3)Gal(b1-3)[Fuc(a1-4)]GlcNAc(b1-3)Gal(b1-4)[Fuc(a1-3)]GlcNAc
# Summary of the method: as §1
# [19] = molecular target: Neu5Ac(a2-3)Gal(b1-3)[GlcNAc(b1-6)]GalNAc
# Summary of the method: as §1
# [20] = molecular target: Neu5Ac(a2-3)Gal(b1-3)[Neu5Ac(a2-6)]GalNAc
# Summary of the method: as §1
# [21] = molecular target: Neu5Ac(a2-3)Gal(b1-3)[Neu5Ac(a2-6)]GlcNAc(b1-3)[Fuc(a1-3)[Gal(b1-4)]GlcNAc(b1-6)]Gal(b1-4)Glc
# Summary of the method: as §1
# [22] = molecular target: Neu5Ac(a2-3)Gal(b1-3)]Neu5Ac(a2-3)Gal(b1-4)]GlcNAc
# Summary of the method: as §1
# Neu5Ac(a2-3)Gal(b1-4)Glc = molecular target: Neu5Ac(a2-3)Gal(b1-4)Glc
# Summary of the method: as §1
# [23] = molecular target: Neu5Ac(a2-3)Gal(b1-4)GlcNAc
# Summary of the method: as §1
# [24] = molecular target: Neu5Ac(a2-3)Gal(b1-4)GlcNAc(b1-2)Man
# Summary of the method: as §1
# [25] = molecular target: Neu5Ac(a2-3)Gal(b1-4)GlcNAc(b1-2)Man(a1-3)[GlcNAc(b1-4)][Neu5Ac(a2-3)Gal(b1-4)GlcNAc(b1-2)Man(a1-6)]Man(b1-4)GlcNAc(b1-4)GlcNAc
# Summary of the method: as §1
# [26] = molecular target: Neu5Ac(a2-3)Gal(b1-4)GlcNAc(b1-2)Man(a1-3)[Neu5Ac(a2-3)Gal(b1-4)GlcNAc(b1-2)Man(a1-6)]Man(b1-4)GlcNAc(b1-4)GlcNAc
# Summary of the method: as §1
# [27] = molecular target: Neu5Ac(a2-3)Gal(b1-4)GlcNAc(b1-2)Man(a1-3)[Neu5Ac(a2-3)Gal(b1-4)GlcNAc(b1-2)Man(a1-6)]Man(b1-4)GlcNAc(b1-4)[Fuc(a1-6)]GlcNAc
# Summary of the method: as §1
# [28] = molecular target: Neu5Ac(a2-3)Gal(b1-4)GlcNAc(b1-2)Man(a1-3)[Neu5Ac(a2-6)Gal(b1-4)GlcNAc(b1-2)Man(a1-6)]Man(b1-4)GlcNAc(b1-4)GlcNAc
# Summary of the method: as §1
# [29] = molecular target: Neu5Ac(a2-3)Gal(b1-4)GlcNAc(b1-2)[Neu5Ac(a2-3)Gal(b1-4)GlcNAc(b1-4)]Man(a1-3)[GlcNAc(b1-4)][Neu5Ac(a2-3)Gal(b1-4)GlcNAc(b1-2)[Neu5Ac(a2-3)Gal(b1-4)GlcNAc(b1-6)]Man(a1-6)]Man(b1-4)GlcNAc(b1-4)GlcNAc
# Summary of the method: as §1
# [30] = molecular target: Neu5Ac(a2-3)Gal(b1-4)GlcNAc(b1-2)[Neu5Ac(a2-3)Gal(b1-4)GlcNAc(b1-4)]Man(a1-3)[GlcNAc(b1-4)][Neu5Ac(a2-3)Gal(b1-4)GlcNAc(b1-4)Man(a1-6)]Man(b1-4)GlcNAc(b1-4)GlcNAc
# Summary of the method: as §1
# [31] = molecular target: Neu5Ac(a2-3)Gal(b1-4)GlcNAc(b1-2)[Neu5Ac(a2-3)Gal(b1-4)GlcNAc(b1-6)]Man(a1-6)[Neu5Ac(a2-3)Gal(b1-4)GlcNAc(b1-2)Man(a1-3)]Man(b1-4)GlcNAc(b1-4)GlcNAc
# Summary of the method: as §1
# [32] = molecular target: Neu5Ac(a2-3)Gal(b1-4)GlcNAc(b1-2)[Neu5Ac(a2-3)Gal(b1-4)GlcNAc(b1-6)]Man(a1-6)[Neu5Ac(a2-3)Gal(b1-4)GlcNAc(b1-2)Man(a1-3)][GlcNAc(b1-4)]Man(b1-4)GlcNAc(b1-4)GlcNAc
# Summary of the method: as §1
# [33] = molecular target: Neu5Ac(a2-3)Gal(b1-4)GlcNAc(b1-3)Gal
# Summary of the method: as §1
# [34] = molecular target: Neu5Ac(a2-3)Gal(b1-4)GlcNAc(b1-3)Gal(b1-3)GlcNAc
# Summary of the method: as §1
# [35] = molecular target: Neu5Ac(a2-3)Gal(b1-4)GlcNAc(b1-3)Gal(b1-4)GlcNAc
# Summary of the method: as §1
binder,measurement,setting,value
B1,glycan array binding signal (z-score),Neu5Ac(a2-3)Gal,-0.322
same,glycan array binding signal (z-score),[1],0.446
same,glycan array binding signal (z-score),[2],-0.312
same,glycan array binding signal (z-score),[3],-0.31
same,glycan array binding signal (z-score),[4],-0.243
same,glycan array binding signal (z-score),[5],-0.126
same,glycan array binding signal (z-score),[6],-0.305
same,glycan array binding signal (z-score),[7],-0.24
same,glycan array binding signal (z-score),[8],-0.135
same,glycan array binding signal (z-score),[9],-0.215
same,glycan array binding signal (z-score),[10],-0.289
same,glycan array binding signal (z-score),[11],-0.197
same,glycan array binding signal (z-score),[12],-0.256
same,glycan array binding signal (z-score),[13],-0.075
same,glycan array binding signal (z-score),[14],1.27
same,glycan array binding signal (z-score),[15],0.077
same,glycan array binding signal (z-score),[16],-0.339
same,glycan array binding signal (z-score),[17],-0.161
same,glycan array binding signal (z-score),[18],0.498
same,glycan array binding signal (z-score),[19],0.292
same,glycan array binding signal (z-score),[20],-0.123
same,glycan array binding signal (z-score),[21],-0.245
same,glycan array binding signal (z-score),[22],-0.353
same,glycan array binding signal (z-score),Neu5Ac(a2-3)Gal(b1-4)Glc,1.23
same,glycan array binding signal (z-score),[23],-0.181
same,glycan array binding signal (z-score),[24],0.213
same,glycan array binding signal (z-score),[25],-0.211
same,glycan array binding signal (z-score),[26],-0.218
same,glycan array binding signal (z-score),[27],-0.35
same,glycan array binding signal (z-score),[28],-0.392
same,glycan array binding signal (z-score),[29],-0.312
same,glycan array binding signal (z-score),[30],-0.395
same,glycan array binding signal (z-score),[31],0.233
same,glycan array binding signal (z-score),[32],-0.315
same,glycan array binding signal (z-score),[33],-0.188
same,glycan array binding signal (z-score),[34],-0.341
same,glycan array binding signal (z-score),[35],-0.285
